Measurements taken from patent publication US9352006B2 (priority 2010, dated 2016).

Tested on: B16-OVA melanoma lung metastases
Details: mouse, in vivo
From the text: The B16 tumor cell line (ATCC CRL-6475™) is a C57BL/6-derived melanoma cell line with low immunogenicity. The ovalbumin (OVA)-expressing B16 tumor line used is a stable OVA-transfected clone in order to track tumor antigen specific T cell responses in vivo. TC-1 was derived from the primary lung epithelial cells of C57BL/6. The HPV E6/E7-expressing TC-1 tumor cells were generated to test the efficacy of various E6/E7-specific vaccines. To establish a tumor model of metastatic lung cancer and liver cancer, C57B1/6 mice were challenged with 3×10^5 tumor cells intravenously or implanted with 7×10^4 tumor cells intrahepatically.
In the intrahepatic OVA-B16/C57BL/6 tumor model, when tumors reached the size of 5×5 mm^2 or, for the OVA-B16 lung metastatic tumor model, in mice with existing tumors, 5×10^6 MDSCs loaded with nanoparticles were adoptively transferred into these tumor bearing mice. Survival of test mice was determined. For some experiments, mice were sacrificed after adoptive transfer of MDSC after 14 days. The proliferation of purified splenic T cells and lung lymphocytes in response to OT-I OVA peptide, OT-II OVA peptide or OVA protein (5 mg/mL) in the presence of irradiated naïve splenocytes was assessed. For sunitinib malate ((Sutent, Pfizer)) treatment, 0.015 mg/day was given daily for 28 days as clinical protocol. The TC-1 tumor model used the same protocol. […]

## CCN(CC)CCNC(=O)c1c(C)[nH]c(/C=C2\C(=O)Nc3ccc(F)cc32)c1C [sunitinib malate]
  IFNγ production in metastatic lung lymphocytes: significantly increased IFNγ production
